Measured values published in PMC4336329 (PLoS ONE, 2015).
Screen size: about 310,000 compounds; about 2,200 (0.71%) showed an effect of 50% or more. Effects have a minus sign here. Some of the results follow.

target: human ether-à-go-go-related gene (hERG) potassium channel (human, UniProt Q12809); test: primary screen, population patch clamp on CHO cells stably expressing hERG
Sequence (Q12809 whole entry, looked up): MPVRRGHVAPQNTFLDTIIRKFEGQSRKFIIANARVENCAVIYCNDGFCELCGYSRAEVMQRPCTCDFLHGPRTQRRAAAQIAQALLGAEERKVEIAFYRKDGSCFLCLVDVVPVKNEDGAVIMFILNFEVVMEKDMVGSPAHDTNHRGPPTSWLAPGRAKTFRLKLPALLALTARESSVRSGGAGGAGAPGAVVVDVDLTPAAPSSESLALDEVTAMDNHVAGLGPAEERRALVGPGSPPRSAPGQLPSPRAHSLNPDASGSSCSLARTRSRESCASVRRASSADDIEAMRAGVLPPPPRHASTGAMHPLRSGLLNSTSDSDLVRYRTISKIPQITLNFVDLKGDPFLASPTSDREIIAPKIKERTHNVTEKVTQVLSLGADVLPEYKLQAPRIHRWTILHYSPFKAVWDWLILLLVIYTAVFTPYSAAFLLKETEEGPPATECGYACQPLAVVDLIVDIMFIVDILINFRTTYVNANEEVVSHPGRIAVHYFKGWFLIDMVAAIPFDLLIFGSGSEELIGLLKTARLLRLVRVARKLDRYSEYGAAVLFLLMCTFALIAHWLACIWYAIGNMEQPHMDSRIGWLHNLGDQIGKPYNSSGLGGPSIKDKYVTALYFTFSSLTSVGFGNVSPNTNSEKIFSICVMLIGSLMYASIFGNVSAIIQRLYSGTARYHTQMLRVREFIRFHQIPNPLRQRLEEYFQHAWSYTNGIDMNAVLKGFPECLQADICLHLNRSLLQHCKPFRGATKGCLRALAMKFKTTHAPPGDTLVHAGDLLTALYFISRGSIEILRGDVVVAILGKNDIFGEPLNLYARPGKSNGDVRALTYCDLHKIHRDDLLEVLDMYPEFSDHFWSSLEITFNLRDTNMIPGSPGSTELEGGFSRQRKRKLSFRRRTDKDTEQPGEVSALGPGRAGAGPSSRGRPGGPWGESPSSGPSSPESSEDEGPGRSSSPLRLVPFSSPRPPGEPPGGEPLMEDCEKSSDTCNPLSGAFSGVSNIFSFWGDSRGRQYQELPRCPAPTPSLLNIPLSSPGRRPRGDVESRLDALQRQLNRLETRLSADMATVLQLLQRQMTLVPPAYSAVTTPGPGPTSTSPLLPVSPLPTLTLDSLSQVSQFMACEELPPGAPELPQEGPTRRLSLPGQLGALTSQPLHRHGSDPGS

Structure (SMILES)	hERG current change (%, negative = inhibition) at 1uM [%]
CCOC(=O)C1CCCN(C(=O)c2cc(S(=O)(=O)N3CCCCC3)c[nH]2)C1 (centres unmarked)	9
CCOc1cc(C(C(=O)NCC2CCCO2)N(C(=O)Cn2nnc3ccccc32)c2ccc(C(C)=O)cc2)ccc1O (centres unmarked)	4.08
COc1ccc(-n2c(COc3ccc(C)cc3)nnc2SCC(N)=O)cc1	5.37
CCN(CC)S(=O)(=O)c1cccc(NC(=O)Nc2cccc(C(F)(F)F)c2)c1	-8.7
CCc1ccccc1Nc1ncnc2ccccc12.Cl	16.9
Cc1ccc(C)c(NC(=O)CN(C)C(=O)c2ccc(-c3ccc(Cl)cc3)o2)c1	10.1
COc1cccc2c1OC[C@@H](CO)[C@H]2N(C)C(=O)Nc1ccc(Cl)cc1Cl	-3.21
O=C(NCc1ccccc1Cl)c1cc([N+](=O)[O-])ccc1Cl	7.84
O=C(NCc1ccccc1Cl)c1ccc(-c2ccccc2)cc1	7.76
CCC(CC)C(=O)N1CCN(Cc2nc3ccccc3c(=O)[nH]2)CC1	6.77
CC(CCc1ccccc1)NC(=O)c1ccc(NC(=O)c2ccccc2)cc1 (centres unmarked)	11.5
CCC(C)[C@H](NC(=O)N1c2ccccc2NC(=O)[C@@H]1C(C)C)C(=O)N[C@@H](Cc1ccccc1)C(=O)O (some centres unmarked)	12.4
Cc1cc(NN)nc(NS(=O)(=O)c2ccccc2)n1	21.1
O=S(=O)(c1ccccc1)c1nnn2c1nc(NC1CCN(Cc3ccccc3)CC1)c1cc(Cl)ccc12	9.66
O=C(CCC(=O)N1C[C@H]2C[C@@H](C1)c1cccc(=O)n1C2)NCc1ccccc1C(F)(F)F	-3.34
CCn1cnc2scc(-c3ccccc3)c2c1=O	8.79
CC(=O)N1N=C(c2ccc(Br)cc2)OC12CCCC2	14.7
Cc1cccc(C)c1NC(=S)/N=C/N(C)C	12.9
Cc1cc(C(=O)CN2CCN(CC(=O)Nc3cccc(F)c3)CC2)c(C)n1C1CC1	-7.82
CCN(CC)C(=O)C1CCCN(Cc2ccc(OC)c(C)c2)C1 (centres unmarked)	6.74
COc1ccc(CCNC(=O)c2cc(-c3cc(C)ccc3O)n[nH]2)cc1OC	5.23
Cc1onc(-c2c(Cl)cccc2Cl)c1NC(=O)NN(C)c1ccc([N+](=O)[O-])cn1	6.64
O=C(Nc1ccc(-c2nc3ccccc3o2)c(O)c1)c1cc(-n2cnnc2)ccc1Cl	7.67
